# In the supplement of paper PMC3334620:
# Whole data set: some 33,000 sequences, median “E-score (-0.5 to 0.5)” near -0.012, cut for the highest 2% near 0.29. Some of the results follow.
# Molecular target: T1, Ybr033w (UniProt P38073)
# T1 sequence: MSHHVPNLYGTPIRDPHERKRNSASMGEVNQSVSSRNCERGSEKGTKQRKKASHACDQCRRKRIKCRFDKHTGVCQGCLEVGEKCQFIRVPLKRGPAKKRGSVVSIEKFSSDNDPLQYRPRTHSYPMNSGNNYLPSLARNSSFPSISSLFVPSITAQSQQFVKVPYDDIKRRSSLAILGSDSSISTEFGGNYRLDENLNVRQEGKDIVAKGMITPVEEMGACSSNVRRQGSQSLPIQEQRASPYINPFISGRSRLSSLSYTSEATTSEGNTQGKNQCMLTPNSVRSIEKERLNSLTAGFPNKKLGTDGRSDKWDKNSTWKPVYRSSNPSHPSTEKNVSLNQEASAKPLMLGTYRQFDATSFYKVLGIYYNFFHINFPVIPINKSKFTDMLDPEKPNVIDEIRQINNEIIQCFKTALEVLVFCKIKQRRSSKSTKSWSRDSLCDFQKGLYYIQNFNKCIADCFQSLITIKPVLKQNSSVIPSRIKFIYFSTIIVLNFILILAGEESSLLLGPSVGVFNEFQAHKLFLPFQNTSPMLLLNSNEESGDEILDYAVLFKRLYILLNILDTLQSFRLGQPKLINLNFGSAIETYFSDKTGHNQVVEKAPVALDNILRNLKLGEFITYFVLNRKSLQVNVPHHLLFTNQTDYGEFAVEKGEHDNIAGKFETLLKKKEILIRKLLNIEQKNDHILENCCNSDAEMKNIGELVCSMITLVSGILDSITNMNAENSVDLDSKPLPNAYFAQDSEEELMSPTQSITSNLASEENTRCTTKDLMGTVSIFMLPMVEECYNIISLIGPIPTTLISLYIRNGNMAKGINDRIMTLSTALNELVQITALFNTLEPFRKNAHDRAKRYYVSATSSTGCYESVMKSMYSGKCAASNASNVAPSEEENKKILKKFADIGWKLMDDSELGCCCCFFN
# Assay: PBM E-score (8-mer binding enrichment) (E-score (-0.5 to 0.5)); higher = stronger / more preferred TF binding; most listed sequences are background and not binding sites
# Conditions: protein concentration: 200 nM; construct: GST-full length
# Procedure, shortened: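 Universal all-10-mer Agilent arrays, fresh or stripped once, were converted to double-stranded form by primer extension. GST-tagged yeast transcription factors from PURExpress in vitro transcription/translation, full-length or DNA-binding domain only, were applied at about 100-200 nM and detected with fluorescent anti-GST. After masliner normalisation, the Universal PBM Analysis Suite scored each ungapped eight-base word together with its reverse complement by E-score.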
row,Sequence,PBM E-score
1,AGAAGCCG,-0.138
2,AGGGCACC,-0.315
3,CCCAAGAG,-0.146
4,GCTAGTCA,0.0653
5,AGCGACTC,-0.0349
6,GTGGTGTA,0.122
7,AATAAATA,0.378
8,CGCAGAGA,-0.0686
9,GGTGAAAA,0.158
10,AGCTATTC,0.00704
11,ACTTGGCT,0.102
12,CACCCGAG,-0.105
13,CTAACAGA,0.163
14,GGCGCTCA,-0.204
15,GATCTCCC,-0.247
16,ATGCAGTC,-0.0212
17,ACAACAAT,0.122
18,CAGACCTC,-0.102
19,ACTCCCTG,0.00695
20,GGGGGCAA,-0.28
21,ATATATCG,0.228
22,AAGTCGTA,0.0926
23,AGTCAACA,0.184
24,CAGGGCAA,-0.132
25,AGAGCATC,-0.179

row,Sequence,PBM E-score
1,GGCGGCGA,-0.0551
2,GTACAATA,0.199
3,TACGGCGA,0.0446
4,CCTATAAC,-0.142
5,CCGAGTAC,-0.0398
6,AGCGACAG,0.0176
7,AGCATGGA,-0.166
8,CAAAATAG,0.0554
9,AAAAGTCT,0.0541
10,AACGTAAC,0.113
11,CATCAAGA,0.122
12,TGAATACA,0.21
13,AGTGCATC,-0.0224
14,ACAACCCA,0.0739
15,GTAGTTGA,0.269
16,CGTCGACG,-0.386
17,AAGGCGGA,-0.0452
18,AAGGGAGG,-0.32
19,ACGTTATA,0.167
20,AGTGCACC,-0.00086
21,ACACACAG,0.0568
22,CATGCGGA,-0.171
23,CCAGGATA,0.164
24,ACAACGGC,-0.124
25,GTCTACTA,0.179

row,Sequence,PBM E-score
1,CGCACCCA,-0.3
2,CAGCACGC,-0.059
3,ATGATGAG,0.0214
4,CGCTTCAG,-0.15
5,CATCTTAA,0.166
6,GCACCTCA,0.0735
7,AAATGACG,0.0876
8,CTCAACGC,-0.285
9,AACCTGAG,0.112
10,CGAGGTAG,-0.311
11,GCAGGCCA,-0.168
12,AGGGTCTA,-0.106
13,GAATATGA,0.203
14,GAAAGAGC,-0.0205
15,CCCAAACG,-0.21
16,CCCACGGC,-0.21
17,ATGCACGG,-0.204
18,ACGGGGTC,-0.271
19,ATTCAGCC,-0.0397
20,ATCCCACA,-0.0695
21,GGTGTAAC,0.0807
22,CGAAAGAC,0.0779
23,ACGGCGCA,0.00405
24,ACATGAGG,-0.0701
25,ACCGTTGG,-0.187

row,Sequence,PBM E-score
1,CATTAGTC,0.013
2,CTTTTACA,0.23
3,CACCTCAC,0.0264
4,AGGCAGCG,-0.245
5,ATCAGAAG,0.0587
6,GCCGGACC,-0.32
7,CTTGTATC,0.184
8,TGAGTGAA,0.0649
9,GATGTCCA,0.0453
10,GAGATACC,0.00548
11,CAAGGAAG,0.0258
12,ATCCCTTG,-0.0289
13,GTAGGGCA,-0.0411
14,AAATCGTG,0.256
15,GTGAAAGA,0.0852
16,TACCGCGA,0.0786
17,AGTAGTTG,0.176
18,CTGACCTC,-0.13
19,CTATCGCC,-0.346
20,AAGCAACT,0.123
21,GGAATTTA,0.16
22,CGGTGATA,0.178
23,AACCTCCC,-0.2
24,CGCTAATC,-0.0406
25,CCGTTAGC,-0.135

row,Sequence,PBM E-score
1,CAGATTCC,-0.0173
2,AAAAAACG,0.243
3,CATGAGAG,-0.0357
4,ACCCTCGC,-0.254
5,ATACAATA,0.332
6,GTGGATCA,0.0654
7,ACACCTCC,-0.212
8,AGGCGTTG,-0.0125
9,CTGATGAC,-0.076
10,ACCAATCT,-0.0208
11,GCGGATGA,0.0612
12,ACAGACGT,-0.24
13,GCCACCCC,-0.319
14,CATTGATA,0.172
15,TGAAGTCA,0.0881
16,CACATATA,0.0859
17,CACGACAG,-0.0203
18,GCCTATTA,0.0806
19,CCCTGGAC,-0.294
20,AATTCTCC,0.293
21,CATGAACA,0.166
22,ATTCGCAC,-0.0817
23,CGTTAGAC,-0.13
24,AGTATGAG,0.159
25,CAAACTCG,0.0731

row,Sequence,PBM E-score
1,AGGCCGCG,-0.0558
2,GAACGGAA,0.0333
3,CAAATGAG,0.0404
4,ACCGGAAT,0.157
5,GATAGAGA,0.0298
6,AATATTGG,0.047
7,CGGATGCC,-0.168
8,AGCCCGTC,-0.243
9,AAAACGAA,0.169
10,AATGGTTG,0.0973
11,ACGTGGCG,-0.113
12,ATGCTCTC,-0.247
13,CTTAAGGA,-0.0462
14,GTTCGAAC,0.209
15,AGGTGCGG,-0.0339
16,TATATAGA,0.219
17,AAACATTT,0.269
18,AAGACAGA,0.0921
19,GGTGCACA,-0.168
20,ATCGAAAG,0.185
21,AGGAACCC,-0.224
22,CCTATTTA,0.0765
23,ACCGCACT,-0.0787
24,CAACAGGA,-0.0988
25,AATAACAG,0.133

row,Sequence,PBM E-score
1,AGTCGAAG,0.00687
2,CTACGGGA,-0.0259
3,ATACCCGC,0.00388
4,ACCTCGCT,0.0298
5,TGTGCACA,-0.0768
6,CCGTTAGA,0.0712
7,GCAGACGA,-0.0955
8,ATACGACG,0.135
9,CAACGTAG,-0.114
10,CTGACCCA,-0.29
11,CGCTCTTA,0.0937
12,GCGGCACC,-0.1
13,GCAAGTTA,0.0982
14,GCTGCGAC,0.0106
15,CCCGTTGC,-0.267
16,CGCGGAGC,-0.164
17,GGTTTGAA,-0.0528
18,CATAGTGC,0.0144
19,AAGTTAGC,0.134
20,ATATTCCG,0.428
21,AGTGTGTC,0.00564
22,GTCCGAAA,0.122
